# Test results taken from PubChem BioAssay AID504832 (National Center for Advancing Translational Sciences (NCATS), 2011).
# In all, about 310,000 compounds went through this assay and about 18,000 (5.8%) were called active. The shares of active, inactive and inconclusive entries below differ from those in the screen. Calls come from the whole dose curve; as a rule, active = well fitted inhibition curve with a large enough effect; inconclusive = small, poorly fitted or top-dose-only effect, or another doubt; inactive = no such curve, though single readings can be large or run the other way. No potency is given beside an inconclusive call; the fits are too rough.
# Assay: Primary qHTS for delayed death inhibitors of the malarial parasite plastid, 48 hour incubation
# Details: P. falciparum luciferase growth in erythrocytes; series mostly up to 28.7 µM
# In short: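 Compounds are pin-transferred into medium, infected erythrocytes (2% hematocrit, 0.1% parasitemia final) are added, and plates sit one parasite generation at 37 C in 5% CO2. Detection reagent is then added and luminescence measured.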
# Potency is the fitted concentration of half-maximal effect; tags give direction and shape of the fitted curve.
row,SMILES,Potency
1,Cc1cccc(OCc2nnc(SCC(=O)N3c4ccccc4Sc4ccc(Cl)cc43)o2)c1,"inconclusive [inhibitor, partial curve, poor fit]"
2,CCCCC1=CC2=CC(=O)C(C)(OC(=O)C3CCCC3)C(=O)C2=CO1 (stereo unspecified),"inconclusive [inhibitor, single point]"
3,CC(C)CC(=O)N1CCN(S(=O)(=O)c2ccc(C3CCCCC3)cc2)CC1,"inconclusive [inhibitor, single point]"
4,Cc1ccc2nc(-c3ccccc3)cc(C(=O)N3CCc4ccccc4C3)c2c1,active: 9.28 µM
5,CCCCCn1c(CN(C)Cc2ccccc2)nc2c1c(=O)n(C)c(=O)n2C,"inconclusive [inhibitor, single point]"
6,Cc1cccc(C(=O)O/N=C(\N)Cc2cccc3ccccc23)c1,active: 3.29 µM
7,Cc1ccc(NC(=S)NC(=O)c2ccc(F)cc2)cc1S(=O)(=O)Nc1cccc(Cl)c1,"inconclusive [inhibitor, single point]"
8,COc1ccc2[nH]c(=O)c(CN(CCN3CCCC3)C(=O)Nc3ccccc3Cl)cc2c1,"inconclusive [inhibitor, single point]"
9,CC(NC(=O)Nc1nnc(C(F)(F)F)s1)(C(F)(F)F)C(F)(F)F,active: 3.29 µM
10,CN(Cc1ccco1)c1ncnc2ccc(-c3ccoc3)cc12,"inconclusive [inhibitor, single point]"
11,Cn1nccc1C(=O)Oc1ccc(/C=N/NC(=O)c2ccccc2O)cc1,"inconclusive [inhibitor, full curve, poor fit]"
12,O=C(COc1ccc(S(=O)(=O)N2CCOCC2)cc1Cl)NC1CCCCC1,"inconclusive [inhibitor, partial curve]"
13,CCN(CC)CCOc1ccc(/C(=C(/Cl)c2ccccc2)c2ccccc2)cc1,active: 9.28 µM
14,Cc1ccc(NC(=O)c2cc(NC(=O)c3ccco3)ccc2N2CCOCC2)cc1,inactive
15,Cc1ccc(O)c(CNc2nc3ccccc3n2C)c1,"inconclusive [inhibitor, partial curve]"
16,Cc1cccc(Oc2cc(NC(=O)Cn3cnc([N+](=O)[O-])n3)cc([N+](=O)[O-])c2)c1,"inconclusive [inhibitor, single point]"
17,O=C(NC1CCCCC1)C(c1ccncc1)N(C(=O)Cn1nnc(-c2cccs2)n1)C1CCCC1 (stereo unspecified),"inconclusive [inhibitor, partial curve, poor fit]"
18,O=c1cc(CN2CCc3ccccc32)c2ccc(O)cc2o1,"inconclusive [inhibitor, partial curve]"
19,COc1ccc(/C=C(/C(=O)NCc2ccccc2)c2ccccc2)cc1,"inconclusive [inhibitor, partial curve, poor fit]"
20,C/C(=N/NC(=O)CNc1ccc(Cl)cc1C)c1ccc(C)cc1,inactive
21,O=C(Nc1ccc(NC(=O)c2cccs2)cn1)c1ccco1,inactive
22,Cc1nc(N2CCN(c3ccc(Cl)cc3)CC2)[nH]c(=O)c1C,"inconclusive [inhibitor, single point]"

row,SMILES,Potency
1,COc1ccc(-c2c[n+](CC(=O)N3c4ccccc4Sc4ccccc43)c3n2CCC3)cc1,active: 2.62 µM
2,Cc1cc(/C=C2/NC(=O)NC2=O)c(C)n1-c1sc2c(c1C#N)CCCC2,"inconclusive [inhibitor, single point]"
3,C/C(=N\Nc1nc(-c2ccccn2)nc2ccccc12)c1ccc(F)cc1,"inconclusive [inhibitor, full curve]"
4,COCCN(CC(=O)Nc1cccc(C)c1C)C(=O)c1cc2c(s1)CCC2,"inconclusive [inhibitor, single point]"
5,Cc1ccc(NC(=O)C(=O)NCC2CCCN2S(=O)(=O)c2cccs2)cc1C (stereo unspecified),"inconclusive [inhibitor, single point]"
6,COc1ccc(N(CC(=O)NC2CC3CCC2C3)S(=O)(=O)c2ccc(C)c([N+](=O)[O-])c2)cc1 (stereo unspecified),"inconclusive [inhibitor, partial curve]"
7,CCCCC(Sc1nc(C)c(Cc2ccccc2)c(=O)[nH]1)C(=O)O (stereo unspecified),"inconclusive [inhibitor, single point]"
8,Cc1cccn2cc(-c3cccc(NC(=O)c4cccs4)c3)nc12,inactive
9,COc1cccc(CN2CCNC(=O)C2CC(=O)N(C)C2CCOCC2)c1OC (stereo unspecified),inactive
10,Cc1nn(C(C)C(=O)N2CCc3ccccc3C2)c(=O)c2cc3occc3n12 (stereo unspecified),"inconclusive [inhibitor, single point]"
11,CC(C)(C)n1nnnc1C(c1cccs1)N(Cc1ccc(Cl)cc1)CC1CCCO1 (stereo unspecified),active: 13.1 µM
12,CC1CCCC(C)N1CCCNC(=O)c1nn(C)c2c1CSc1ccccc1-2 (stereo unspecified),"inconclusive [inhibitor, single point]"
13,Cc1ccc(NC(=O)c2cccc3ccccc23)cc1,inactive
14,CCOc1ccc(C(=O)CCC(=O)Nc2cccc(S(=O)(=O)N3CCCCC3)c2)cc1,"inconclusive [inhibitor, single point]"
15,CC(NC(=O)CNC(=O)c1ccco1)c1ccccc1 (stereo unspecified),inactive
16,C/C(=N/NC(=O)c1cnccn1)c1ccncc1,inactive
17,O=C(NCCCN1CCOCC1)c1cc(-c2ccccc2)nc2ccccc12,"inconclusive [inhibitor, single point]"
18,CC(NC(=O)OC(C)(C)C)C(=O)N1CCCC1C(=O)NC(Cc1ccccc1)C(N)=O (stereo unspecified),inactive
19,COc1ccc([C@@H]2[C@@H]3C(=O)N(C(C)(C)C)C(=O)[C@@H]3[C@]3(Cc4ccc(Cl)cc4)C(=O)N(c4ccc(Br)cc4)C(=O)N23)cc1,"inconclusive [inhibitor, full curve, poor fit]"
20,COc1cccc(/C=C2\Sc3ccc(C(=O)NCC4CCCO4)cc3N(C)C2=O)c1 (stereo unspecified),"inconclusive [inhibitor, partial curve, poor fit]"
21,O=C(N/N=C/c1ccncc1)c1cc(Br)ccc1OCc1ccccc1,"inconclusive [inhibitor, partial curve, poor fit]"
22,C[C@]12CC[C@@H](O)C[C@H]1CC[C@@H]1[C@@H]2CC[C@]2(C)C(=O)CC[C@@H]12,"inconclusive [inhibitor, single point]"

row,SMILES,Potency
1,Cc1cccc(Cn2c(SCC(=O)Nc3ccccc3)nc3c2c(=O)[nH]c(=O)n3C)c1,"inconclusive [inhibitor, partial curve]"
2,Cc1oc(-c2ccccc2Cl)nc1CSCC(=O)NC1CC1,"inconclusive [inhibitor, single point]"
3,Cc1cccc(N2CCN(c3ccc(NC(=O)/C=C\C(=O)O)cc3)CC2)c1,active: 8.28 µM
4,N#C/C(=C\c1ccc(N2CCOCC2)c([N+](=O)[O-])c1)c1nc2ccccc2[nH]1,"inconclusive [inhibitor, single point]"
5,CCC(C)NC(=O)c1ccc(COc2ccccc2Cl)cc1 (stereo unspecified),"inconclusive [inhibitor, single point]"
6,Cn1c2c(c(=O)n(C)c1=O)CN(CC1CCCO1)CN2 (stereo unspecified),inactive
7,COCC(C)n1c(C)cc(C(=O)CN2c3cccc4cccc(c34)S2(=O)=O)c1C (stereo unspecified),"inconclusive [inhibitor, single point]"
8,COc1ccc(S(=O)(=O)NCC2(N3CCOCC3)CCCCC2)cc1OC,"inconclusive [inhibitor, single point]"
9,Cc1ccc2oc(=O)cc(CN3CCN(Cc4ccccc4)CC3)c2c1,"inconclusive [inhibitor, partial curve, poor fit]"
10,CN(C)CCNC(=O)c1ccc2c(=O)n(Cc3ccc(Cl)cc3)c(=S)[nH]c2c1,"inconclusive [inhibitor, full curve]"
11,COc1ccc(S(=O)(=O)N2CCCC2CNC(=O)C(=O)Nc2ccc(F)cc2)cc1 (stereo unspecified),"inconclusive [inhibitor, single point]"
12,COC(=O)c1cc(C)nc(Sc2ccccc2N)n1,"inconclusive [inhibitor, single point]"
13,O=[N+]([O-])c1cccc(CN(CCO)Cc2ccccc2)c1,inactive
14,CCOC(=O)CSc1nnc([C@H](CC(C)C)NC(=O)OC(C)(C)C)o1,"inconclusive [inhibitor, single point]"
15,CCOc1ccccc1NC(=O)c1ccccc1-c1nc(-c2ccccc2OC)no1,"inconclusive [inhibitor, single point]"
16,CCc1c(C)c(C#N)c2nc3ccccc3n2c1Nc1c(C)n(C)n(-c2ccccc2)c1=O,"inconclusive [inhibitor, partial curve]"
17,COC(c1ccccc1)c1nnc(CCC(=O)N(C)C(C2CC2)C2CC2)o1 (stereo unspecified),inactive
18,Nc1nc(SCc2ccccc2)[nH]c(=O)c1-c1ccccc1,inactive
19,CC(C)(C)[C@H]1C=C(C(=O)N2CCN(Cc3ccc4c(c3)OCO4)CC2)O[C@@H](OCc2ccc(CO)cc2)C1,active: 10.4 µM
20,O=C(CCc1ccccc1)Nc1cccc([N+](=O)[O-])c1,inactive
21,CC1CCCCN1C(=O)c1cc2ccccc2cc1O (stereo unspecified),"inconclusive [inhibitor, single point]"
22,O=C(Nc1nc2ccccc2n1CCN1CCCCC1)C1CCCCC1,"inconclusive [inhibitor, single point]"
